Assay results from PMC6919601, “Identification of Plasmodium dipeptidyl aminopeptidase allosteric inhibitors by high throughput screening” (PLoS ONE, 2019).
Hit rate of the full screen: of about 110,000 compounds, about 230 (0.21%) showed an effect of 50% or more. The list shows a part of the results.

molecular target: DPAP1 (Plasmodium falciparum, UniProt Q8IIJ9); assay: primary screen, percent inhibition; read by cleavage of a fluorogenic dipeptide substrate; higher = more effect of the substance; design: species or system P. falciparum D10 trophozoite lysates; single well
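Also: 30 min substrate incubation versus DMSO and 10 µM JCP410 controls.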

Sequence of DPAP1 (Q8IIJ9 whole entry, looked up): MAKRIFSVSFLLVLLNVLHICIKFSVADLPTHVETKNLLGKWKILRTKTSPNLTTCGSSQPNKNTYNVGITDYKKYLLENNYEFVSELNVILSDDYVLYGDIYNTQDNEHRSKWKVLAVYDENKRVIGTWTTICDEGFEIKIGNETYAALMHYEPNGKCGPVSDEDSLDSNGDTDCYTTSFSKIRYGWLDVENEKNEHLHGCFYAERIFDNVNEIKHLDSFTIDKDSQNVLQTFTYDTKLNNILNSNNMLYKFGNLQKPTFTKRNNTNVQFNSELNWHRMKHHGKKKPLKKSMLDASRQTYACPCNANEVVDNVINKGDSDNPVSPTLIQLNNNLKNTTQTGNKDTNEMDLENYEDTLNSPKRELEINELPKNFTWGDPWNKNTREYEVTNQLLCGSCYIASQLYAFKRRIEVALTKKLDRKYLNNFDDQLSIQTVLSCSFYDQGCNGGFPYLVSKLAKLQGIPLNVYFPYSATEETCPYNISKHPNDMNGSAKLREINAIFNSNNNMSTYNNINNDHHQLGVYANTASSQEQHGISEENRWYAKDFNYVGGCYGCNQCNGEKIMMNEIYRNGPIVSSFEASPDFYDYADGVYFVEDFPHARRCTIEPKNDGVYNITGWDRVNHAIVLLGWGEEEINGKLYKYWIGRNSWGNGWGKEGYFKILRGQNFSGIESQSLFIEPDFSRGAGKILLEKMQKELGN

Compound | % Inhibition @ 10 uM
CC(C)(C)C(=O)/N=C1\SC2CS(=O)(=O)CC2N1Cc1ccc(Cl)cc1 (stereo not shown) | -2.92%
Cc1c(CC(=O)NCc2ccco2)c(=O)oc2cc(O)c(Cl)cc12 | -0.808%
Cn1nc(-c2ccc(Cl)cc2)c2cc(C(=O)N3CCN(Cc4ccc5c(c4)OCO5)CC3)sc21 | 3.77%
CCN(CC)S(=O)(=O)N1CCC(C(=O)NC(C)CCc2ccccc2)CC1 (stereo not shown) | 1.16%
CCOC(=O)c1c(C)c(-c2ccccc2)n(CC(=O)N2CCN(Cc3ccccc3)CC2)c1C | 0.0579%
CCNCC(=O)N1c2ccccc2CCc2ccc(NC(=O)OCC)cc21 | 3.06%
O=C(NCc1ccccc1)c1csc2c1CCCC2 | 3.54%
Cn1c(=O)c2c(nc3n(-c4ccccc4)c(-c4ccccc4)cn23)n(C)c1=O | 2.43%
CN1CCc2nc(SCc3ccccc3Br)c(C#N)cc2C1 | -0.864%
COCCNc1nc2c(S(=O)(=O)c3ccccc3)nnn2c2ccsc12 | -0.256%
Cn1cc(CCC(=O)NCc2ccccn2)c2ccccc21 | 3.28%
Cc1nnc(NC(=O)CSc2nnc(CNC(=O)c3cccs3)o2)s1 | -3.39%
COC(=O)C1=CN(Cc2ccc(F)cc2)C=C(C(=O)OC)C1c1ccc(O)cc1 | 1.86%
Cc1cc(C)c(C#N)c(SCC(=O)Nc2cccc(C)c2C)n1 | 1.01%
O=[N+]([O-])c1ccc(N2CCN(C3Cc4ccccc4C3)CC2)cc1 | 1.43%
COc1ccc2c(c1)C1=NN(C(C)=O)C(c3ccc([N+](=O)[O-])cc3)C1CC2 (stereo not shown) | 1.63%
O=C(Nc1nc2ccccc2n1CCN1CCOCC1)c1ccccc1F | -6.06%
O=S(=O)(Cc1nn[nH]n1)c1ccccc1 | 2%
Brc1ccc(Oc2ncnc3sc4c(c23)CCCC4)cc1 | -2.28%
O=C(CSc1ncnc2sc3c(c12)CCC3)Nc1ccccc1 | -4.01%
Cc1ccc2[nH]c(C3=C(N)N(CCCN4CCOCC4)CC3=O)nc2c1 | -2.99%
Cc1ccc(C(=O)Nc2ccccc2)cc1S(=O)(=O)N1CCCCCC1 | -6.65%
Cc1ccc(OCC(=O)Nc2ccc(F)cc2)c(C)c1 | -6.74%
Cc1ccnc(NC2c3ccccc3C(=O)N2Cc2ccccc2Cl)c1 (stereo not shown) | 4.01%
COc1ccccc1-c1cc(-c2ccccc2)nc(SCC(=O)c2ccccc2)c1C#N | 2.36%
CC(C)(O)C#Cc1ccc(C(=O)N2CCC(Cc3ccccc3)CC2)cc1 | -4.93%
COc1cccc(CN2CCN(Cc3ccncc3)CC2)c1OC | 8.09%
O=C(Cc1ccccc1)n1nc(-c2ccco2)nc1NCc1ccccc1Cl | -6.98%
